Assay results as given in PubChem BioAssay AID1721 (National Center for Advancing Translational Sciences (NCATS), 2009).
About 1,100 (0.38%) of roughly 290,000 compounds were called active. Inconclusive results, whose numbers are uncertain, are shown with a selection of clear calls. The call rests on the fitted dose curve; in most records, active means well fitted inhibition curve with a large enough effect; inconclusive means small, poorly fitted or top-dose-only effect, or another doubt; inactive means no such curve, though single readings can be large or run the other way. Potencies beside an inconclusive call are fits to weak or partial responses and may not hold up.

These compounds were tested against Pyruvate kinase (Leishmania mexicana) (UniProt Q27686) (assay: qHTS Assay for Inhibitors of Leishmania Mexicana Pyruvate Kinase (LmPK)). Conditions: purified LmPK, Kinase-Glo ATP luminescence, 1 h; activity change, negative = inhibition: at 57.5 µM (top of the series) unless noted.
Outline: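 Purified LmPK (0.1 nM) converted ADP (0.1 mM) to ATP with PEP (0.5 mM) in imidazole buffer pH 7.2 with KCl and MgCl2, 1 h at room temperature. ATP was read by Kinase-Glo luminescence; data normalized to uninhibited and no-enzyme controls.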
On the % scale 0 is the no-effect control and ±100 the full control effect; potency means the concentration at half of the fitted maximal effect; tags describe the fitted curve by direction and shape.

Chain of UniProt Q27686 (Q27686 whole entry, looked up): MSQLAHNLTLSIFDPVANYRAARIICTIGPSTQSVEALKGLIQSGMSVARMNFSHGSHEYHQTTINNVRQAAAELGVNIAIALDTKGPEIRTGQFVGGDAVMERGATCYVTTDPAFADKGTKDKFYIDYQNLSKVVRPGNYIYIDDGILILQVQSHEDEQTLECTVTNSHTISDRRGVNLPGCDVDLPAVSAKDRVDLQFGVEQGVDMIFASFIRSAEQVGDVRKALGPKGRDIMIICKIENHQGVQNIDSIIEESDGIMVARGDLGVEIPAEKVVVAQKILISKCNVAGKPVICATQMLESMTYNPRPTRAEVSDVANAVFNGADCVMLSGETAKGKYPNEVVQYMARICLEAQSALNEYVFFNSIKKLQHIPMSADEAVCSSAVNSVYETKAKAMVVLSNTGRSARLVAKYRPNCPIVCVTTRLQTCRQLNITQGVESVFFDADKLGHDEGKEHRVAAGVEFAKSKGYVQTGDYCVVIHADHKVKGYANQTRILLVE

SMILES | Potency | activity change, negative = inhibition
COc1ccc(NC(=O)Nc2ccccc2C(N)=O)cc1OC | inconclusive: 25.1 µM [falling, single point] | 
N#C/C(=C(/O)c1ccco1)c1nc2ccccc2s1 | inconclusive: 28.2 µM [falling, single point] | 
C=CCn1c(-c2csc3c2CCC(C)C3)n[nH]c1=S (centres undefined) | inconclusive: 25.1 µM [falling, single point] | 
Cc1ccc(NC(=O)CNS(=O)(=O)c2cccs2)cc1F |  | inactive: 7.01%
O=C1c2ccccc2-c2nnc(-c3ccc(F)cc3)cc21 | active: 5.01 µM | 
O=C1c2ccccc2-c2nc3ccccc3nc21 | inconclusive: 28.2 µM [falling, single point] | 
c1ccc(-c2ncc(-c3ccn[nH]3)s2)cc1 | inconclusive: 39.8 µM [falling, single point] | 
N/C(=N\OC(=O)c1ccc2ccccc2c1)c1ccccn1 | active: 14.1 µM | 
CN(C)c1ccc(/C=N/NC(=O)c2ccccn2)cc1 | active: 12.6 µM | 
O=c1oc2c(O)cccc2cc1-c1nc2ccccc2[nH]1 | inconclusive: 35.5 µM [falling, partial curve] | 
CN(C)Cc1c(O)ccc2c(-c3ccccc3)cc(=O)oc12 |  | inactive: 3%
CC(C)=CC(=O)Nc1ccc2c(c1)OCO2 | inconclusive: 22.4 µM [falling, partial curve] | 
Cn1c(CCc2ccc(N)cc2)nc2ccccc21 | inconclusive: 25.1 µM [falling, partial curve] | 
O=C(OCC(=O)c1cccs1)c1ccccc1 | active: 15.8 µM | 
C=CCNC(=O)c1ccc2c3n(nc2c1)-c1ccccc1CO3 | active: 14.1 µM | 
Cc1ccc(-c2nc3n(n2)Cc2ccccc2-3)cc1 | active: 7.94 µM | 
Cc1ccsc1C1C=C(c2cccc(Br)c2)Nc2ncnn21 (centres undefined) |  | inactive: 8.04%
COC(=O)c1ccc2c(c1)C(C)(C)C(/C=C/c1ccc(O)cc1)=[N+]2C | inconclusive: 14.1 µM [falling, partial curve] | 
O=C(/C(N=Nc1cccc(C(F)(F)F)c1)=C(/O)c1cccs1)C(F)(F)F |  | inactive: -1.46%
O=S(=O)(Nc1cc(Sc2ncn[nH]2)c(O)c2ccccc12)c1ccccc1 | active: 14.1 µM | 
COc1ccc(C)cc1N(CC(=O)N1CCCCCC1)S(=O)(=O)c1ccc(C)cc1 |  | inactive: -9.69%
Nc1nc(-c2cc(-c3ccccc3)no2)cs1 | inconclusive: 25.1 µM [falling, single point] | 
COc1ccc(OCc2nc3ccccc3[nH]2)cc1 | active: 17.8 µM | 
COc1ccc(NC(=O)Nc2nccs2)cc1 | inconclusive: 35.5 µM [falling, single point] | 
